# The supplement of paper PMC8728848
# Some of the results follow.
# B1: BTL (Bryothamnion triquetrum) (protein)
# chain: ADPICGSSGYSCTTPAILTPKSPGSFPSGYSKVIVTGVGGSYSVYIHRPDGFKVYKASEGGCASFGSYSGGGNSEVGKYGSGGTVVAVACK
# Tests used:
# Experiment in all cases: glycan array binding signal (z-score within array); higher = stronger binding
# Conditions in all cases: glycan notation: IUPAC condensed, linker removed
# [1] = target: Fuc(a1-2)[GalNAc(b1-3)]Gal
# Method in brief: (§1)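 The binding signal is a Z-score computed within each array. Data were drawn from 3228 arrays in the Consortium for Functional Glycomics database, restricted to those with a known protein sequence. Scores were averaged over arrays of the same protein sequence at different concentrations or buffers, and over linkers, and negative values can be taken as non-binding.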
# Fuc(a1-3)GlcNAc = target: Fuc(a1-3)GlcNAc
# Method in brief: as §1
# [2] = target: Fuc(a1-3)[Gal(b1-4)]Glc6S
# Method in brief: as §1
# [3] = target: Fuc(a1-3)[Gal(b1-4)]GlcNAc
# Method in brief: as §1
# [4] = target: Fuc(a1-3)[Gal(b1-4)]GlcNAc(b1-2)Man
# Method in brief: as §1
# [5] = target: Fuc(a1-3)[Gal(b1-4)]GlcNAc(b1-2)Man(a1-3)[Fuc(a1-3)[Gal(b1-4)]GlcNAc(b1-2)Man(a1-6)]Man(b1-4)GlcNAc(b1-4)GlcNAc
# Method in brief: as §1
# [6] = target: Fuc(a1-3)[Gal(b1-4)]GlcNAc(b1-2)Man(a1-3)[Fuc(a1-3)[Gal(b1-4)]GlcNAc(b1-2)Man(a1-6)]Man(b1-4)GlcNAc(b1-4)[Fuc(a1-6)]GlcNAc
# Method in brief: as §1
# [7] = target: Fuc(a1-3)[Gal(b1-4)]GlcNAc(b1-3)Gal(b1-3)[Fuc(a1-4)]GlcNAc
# Method in brief: as §1
# [8] = target: Fuc(a1-3)[Gal(b1-4)]GlcNAc(b1-3)Gal(b1-4)[Fuc(a1-3)]GlcNAc
# Method in brief: as §1
# [9] = target: Fuc(a1-3)[Gal(b1-4)]GlcNAc(b1-3)Gal(b1-4)[Fuc(a1-3)]GlcNAc(b1-3)Gal(b1-4)[Fuc(a1-3)]GlcNAc
# Method in brief: as §1
# [10] = target: Fuc(a1-3)[Gal(b1-4)]GlcNAc(b1-3)GalNAc
# Method in brief: as §1
# [11] = target: Fuc(a1-3)[Gal(b1-4)]GlcNAc(b1-6)GalNAc
# Method in brief: as §1
# [12] = target: Fuc(a1-3)[Gal(b1-4)]GlcNAc(b1-6)[Gal(b1-3)GlcNAc(b1-3)]Gal(b1-4)Glc
# Method in brief: as §1
# [13] = target: Fuc(a1-3)[Gal(b1-4)]GlcNAc6S
# Method in brief: as §1
# [14] = target: Fuc(a1-3)[Gal3S(b1-4)]Glc
# Method in brief: as §1
# [15] = target: Fuc(a1-3)[Gal3S(b1-4)]GlcNAc
# Method in brief: as §1
# [16] = target: Fuc(a1-3)[Gal3S(b1-4)]GlcNAc6S
# Method in brief: as §1
# [17] = target: Fuc(a1-3)[GalNAc(b1-4)]GlcNAc
# Method in brief: as §1
# [18] = target: Fuc(a1-3)[GalNAc(b1-4)]GlcNAc6S
# Method in brief: as §1
# Fuc(a1-4)GlcNAc = target: Fuc(a1-4)GlcNAc
# Method in brief: as §1
# Fuc(b1-3)GlcNAc = target: Fuc(b1-3)GlcNAc
# Method in brief: as §1
# Gal(a1-2)Gal = target: Gal(a1-2)Gal
# Method in brief: as §1
# Gal(a1-3)Gal = target: Gal(a1-3)Gal
# Method in brief: as §1
# Gal(a1-3)Gal(b1-3)GlcNAc = target: Gal(a1-3)Gal(b1-3)GlcNAc
# Method in brief: as §1
# [19] = target: Gal(a1-3)Gal(b1-3)GlcNAc(b1-2)Man
# Method in brief: as §1
# [20] = target: Gal(a1-3)Gal(b1-3)GlcNAc(b1-2)Man(a1-3)[Gal(a1-3)Gal(b1-3)GlcNAc(b1-2)Man(a1-6)]Man(b1-4)GlcNAc(b1-4)GlcNAc
# Method in brief: as §1
# [21] = target: Gal(a1-3)Gal(b1-3)GlcNAc(b1-3)GalNAc
# Method in brief: as §1
# [22] = target: Gal(a1-3)Gal(b1-3)GlcNAc(b1-6)GalNAc
# Method in brief: as §1
# [23] = target: Gal(a1-3)Gal(b1-3)[Fuc(a1-4)]GlcNAc(b1-2)Man(a1-3)[Gal(a1-3)Gal(b1-3)[Fuc(a1-4)]GlcNAc(b1-2)Man(a1-6)]Man(b1-4)GlcNAc(b1-4)GlcNAc
# Method in brief: as §1
# Gal(a1-3)Gal(b1-4)Glc = target: Gal(a1-3)Gal(b1-4)Glc
# Method in brief: as §1
# Gal(a1-3)Gal(b1-4)GlcNAc = target: Gal(a1-3)Gal(b1-4)GlcNAc
# Method in brief: as §1
# [24] = target: Gal(a1-3)Gal(b1-4)GlcNAc(b1-2)Man
# Method in brief: as §1
# [25] = target: Gal(a1-3)Gal(b1-4)GlcNAc(b1-2)Man(a1-3)[Gal(a1-3)Gal(b1-4)GlcNAc(b1-2)Man(a1-6)]Man(b1-4)GlcNAc(b1-4)GlcNAc
# Method in brief: as §1
# [26] = target: Gal(a1-3)Gal(b1-4)GlcNAc(b1-3)GalNAc
# Method in brief: as §1
# [27] = target: Gal(a1-3)Gal(b1-4)GlcNAc(b1-6)GalNAc
# Method in brief: as §1
# [28] = target: Gal(a1-3)Gal(b1-4)[Fuc(a1-3)]GlcNAc
# Method in brief: as §1
# [29] = target: Gal(a1-3)Gal(b1-4)[Fuc(a1-3)]GlcNAc(b1-2)Man(a1-3)[Gal(a1-3)Gal(b1-4)[Fuc(a1-3)]GlcNAc(b1-2)Man(a1-6)]Man(b1-4)GlcNAc(b1-4)GlcNAc
# Method in brief: as §1
# Gal(a1-3)GalNAc = target: Gal(a1-3)GalNAc
# Method in brief: as §1
# [30] = target: Gal(a1-3)[Gal(a1-4)]Gal(b1-4)GlcNAc
# Method in brief: as §1
# [31] = target: Gal(a1-4)Gal(b1-3)GlcNAc(b1-2)Man(a1-3)[Gal(a1-4)Gal(b1-3)GlcNAc(b1-2)Man(a1-6)]Man(b1-4)GlcNAc(b1-4)GlcNAc
# Method in brief: as §1
# Gal(a1-4)Gal(b1-4)Glc = target: Gal(a1-4)Gal(b1-4)Glc
# Method in brief: as §1
# Gal(a1-4)Gal(b1-4)GlcNAc = target: Gal(a1-4)Gal(b1-4)GlcNAc
# Method in brief: as §1
# [32] = target: Gal(a1-4)Gal(b1-4)GlcNAc(b1-2)Man(a1-3)[Gal(a1-4)Gal(b1-4)GlcNAc(b1-2)Man(a1-6)]Man(b1-4)GlcNAc(b1-4)GlcNAc
# Method in brief: as §1
# [33] = target: Gal(a1-4)Gal(b1-4)GlcNAc(b1-3)Gal(b1-4)Glc
# Method in brief: as §1
# Gal(a1-4)GlcNAc = target: Gal(a1-4)GlcNAc
# Method in brief: as §1
binder,measurement,setting,value
B1,glycan array binding signal (z-score),[1],-0.303
same,glycan array binding signal (z-score),Fuc(a1-3)GlcNAc,-0.258
same,glycan array binding signal (z-score),[2],-0.237
same,glycan array binding signal (z-score),[3],-0.24
same,glycan array binding signal (z-score),[4],-0.242
same,glycan array binding signal (z-score),[5],-0.202
same,glycan array binding signal (z-score),[6],0.176
same,glycan array binding signal (z-score),[7],-0.303
same,glycan array binding signal (z-score),[8],-0.241
same,glycan array binding signal (z-score),[9],-0.297
same,glycan array binding signal (z-score),[10],-0.216
same,glycan array binding signal (z-score),[11],-0.215
same,glycan array binding signal (z-score),[12],-0.263
same,glycan array binding signal (z-score),[13],-0.154
same,glycan array binding signal (z-score),[14],-0.25
same,glycan array binding signal (z-score),[15],-0.266
same,glycan array binding signal (z-score),[16],-0.203
same,glycan array binding signal (z-score),[17],-0.188
same,glycan array binding signal (z-score),[18],-0.241
same,glycan array binding signal (z-score),Fuc(a1-4)GlcNAc,-0.199
same,glycan array binding signal (z-score),Fuc(b1-3)GlcNAc,-0.257
same,glycan array binding signal (z-score),Gal(a1-2)Gal,-0.276
same,glycan array binding signal (z-score),Gal(a1-3)Gal,-0.219
same,glycan array binding signal (z-score),Gal(a1-3)Gal(b1-3)GlcNAc,-0.202
same,glycan array binding signal (z-score),[19],-0.17
same,glycan array binding signal (z-score),[20],-0.222
same,glycan array binding signal (z-score),[21],-0.173
same,glycan array binding signal (z-score),[22],-0.212
same,glycan array binding signal (z-score),[23],-0.091
same,glycan array binding signal (z-score),Gal(a1-3)Gal(b1-4)Glc,-0.222
same,glycan array binding signal (z-score),Gal(a1-3)Gal(b1-4)GlcNAc,-0.237
same,glycan array binding signal (z-score),[24],-0.311
same,glycan array binding signal (z-score),[25],-0.094
same,glycan array binding signal (z-score),[26],-0.244
same,glycan array binding signal (z-score),[27],-0.081
same,glycan array binding signal (z-score),[28],-0.247
same,glycan array binding signal (z-score),[29],-0.121
same,glycan array binding signal (z-score),Gal(a1-3)GalNAc,-0.247
same,glycan array binding signal (z-score),[30],-0.124
same,glycan array binding signal (z-score),[31],-0.205
same,glycan array binding signal (z-score),Gal(a1-4)Gal(b1-4)Glc,-0.245
same,glycan array binding signal (z-score),Gal(a1-4)Gal(b1-4)GlcNAc,-0.224
same,glycan array binding signal (z-score),[32],-0.018
same,glycan array binding signal (z-score),[33],-0.208
same,glycan array binding signal (z-score),Gal(a1-4)GlcNAc,-0.276
